# Measured values: the supplement of paper PMC3334620
# Whole data set: some 33,000 sequences, median “E-score (-0.5 to 0.5)” near -0.021, cut for the highest 2% near 0.32. Some of the results follow.
# Target: T1, Zap1 (UniProt P47043)
# T1 sequence: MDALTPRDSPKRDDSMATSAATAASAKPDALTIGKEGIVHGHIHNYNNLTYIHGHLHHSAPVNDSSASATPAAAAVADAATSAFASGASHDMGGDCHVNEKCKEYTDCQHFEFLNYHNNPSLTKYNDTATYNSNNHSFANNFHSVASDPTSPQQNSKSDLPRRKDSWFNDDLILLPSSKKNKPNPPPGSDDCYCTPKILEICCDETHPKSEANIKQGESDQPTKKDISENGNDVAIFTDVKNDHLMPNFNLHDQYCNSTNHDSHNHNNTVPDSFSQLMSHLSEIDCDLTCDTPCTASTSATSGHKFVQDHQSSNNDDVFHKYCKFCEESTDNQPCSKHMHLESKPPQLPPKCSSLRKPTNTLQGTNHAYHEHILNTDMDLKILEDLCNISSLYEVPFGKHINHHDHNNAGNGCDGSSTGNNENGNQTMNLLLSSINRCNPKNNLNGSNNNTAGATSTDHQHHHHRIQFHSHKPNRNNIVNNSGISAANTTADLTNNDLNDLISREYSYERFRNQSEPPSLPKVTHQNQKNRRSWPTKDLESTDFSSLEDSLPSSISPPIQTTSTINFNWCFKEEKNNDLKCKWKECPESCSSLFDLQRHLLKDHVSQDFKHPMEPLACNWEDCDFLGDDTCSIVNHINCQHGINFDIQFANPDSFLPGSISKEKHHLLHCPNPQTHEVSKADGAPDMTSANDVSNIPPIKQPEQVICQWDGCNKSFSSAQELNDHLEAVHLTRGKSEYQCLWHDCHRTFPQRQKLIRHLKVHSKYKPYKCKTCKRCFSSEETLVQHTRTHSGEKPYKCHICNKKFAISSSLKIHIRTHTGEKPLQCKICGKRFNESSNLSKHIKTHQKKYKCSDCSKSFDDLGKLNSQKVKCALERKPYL
# Assay: PBM E-score (8-mer binding enrichment) (E-score (-0.5 to 0.5)); higher = stronger / more preferred TF binding; most listed sequences are background and not binding sites
# Conditions: protein concentration: 200 nM; construct: GST-full length
# Procedure, shortened: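 For each ungapped eight-base word taken together with its reverse complement, the Universal PBM Analysis Suite assigned an E-score. Binding data came from GST-tagged yeast transcription factors, applied at about 100-200 nM, on universal all-10-mer Agilent arrays made double-stranded by primer extension. Fluorescent anti-GST marked bound protein, and scans were normalised with masliner.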
row,Sequence,PBM E-score
1,CTAGGAGA,-0.238
2,AACCGCGT,0.227
3,ATACAAAC,0.117
4,GTACTTAA,0.0401
5,CACAGGTC,0.0872
6,ATAGGCCG,-0.136
7,CGTTGCCC,-0.259
8,GAATTGGA,0.183
9,CCCCTAAG,0.158
10,CACGTAGC,-0.287
11,CATGAACC,0.149
12,TTAATAAA,0.263
13,TGACTCCA,-0.32
14,GTAATGGA,0.134
15,GACCATGC,-0.0365
16,AAGACTTC,-0.202
17,ACTCCTGG,-0.119
18,CCGATACG,0.0138
19,CCGTCAGG,0.146
20,AGCCTGCC,-0.319
21,GGCGCCGA,-0.146
22,AACGAACA,0.141
23,CAACGTCA,-0.18
24,TCCAAAAA,0.138
25,GAGACCGA,-0.14

row,Sequence,PBM E-score
1,ATAAGCCG,-0.0833
2,TCAAGTAA,0.109
3,CTTAAATC,0.0446
4,GCGTTCAA,0.0881
5,CTCGTTCA,-0.00018
6,ATCCCAGG,-0.149
7,CCAGTTAC,-0.0945
8,TGGCAAAA,-0.031
9,CCTAAAAA,0.179
10,ACCAGACT,0.138
11,ATTTGTGG,0.259
12,ACAATTAT,0.0878
13,ACGAAGTG,0.0434
14,ACAGCCTA,0.129
15,ATCAACTG,-0.0175
16,AAGAGGTC,0.249
17,GCCGTTAA,0.126
18,ACATAGCG,-0.0801
19,CTTTGCAC,0.148
20,CAGGAGAC,-0.178
21,GCATCCTA,-0.093
22,AGTCCGTA,-0.0946
23,GAAGAGCC,-0.201
24,CCCCTATC,-0.169
25,ACCGCACG,0.0756

row,Sequence,PBM E-score
1,ACTCGCAC,-0.129
2,ATATAGTG,0.113
3,CAATTGCG,-0.0256
4,GTTCACTA,0.179
5,CCCGTCGG,0.0165
6,AATGTTCC,-0.116
7,AGGTCATC,0.373
8,GCCCCAAC,0.147
9,ACCCTGAC,0.335
10,ATTCGTCA,-0.154
11,GGATCTGA,-0.194
12,CCTTAGGC,-0.221
13,AGTGTGCG,-0.187
14,AGTATCTA,0.0908
15,ATGGTGTC,-0.064
16,ACGATTCC,-0.169
17,CAATGGGA,-0.162
18,GTTATTGA,0.279
19,ATGGTATC,0.183
20,CGCCTAGA,-0.164
21,CATAGGCA,-0.303
22,TCCCCGAA,-0.153
23,GGTCCTAA,0.13
24,GGGAAGTA,-0.0289
25,CCGCTGTA,-0.00971

row,Sequence,PBM E-score
1,CGCCCACG,-0.147
2,ACGACTCA,-0.287
3,CAATCGCA,0.0279
4,ATGGGCCG,-0.0792
5,TTAATTAA,-0.0493
6,GTCACTTA,0.278
7,GACGCATC,-0.128
8,AAGATTAT,-0.0645
9,CCGGGTCC,0.0968
10,TAATACAA,0.176
11,AATTTAGA,0.0825
12,GATTATTA,0.122
13,TTCTACAA,0.121
14,GTTGCAGA,0.173
15,TCCCTTAA,0.0619
16,TAGGTATA,0.254
17,AAATATGC,-0.169
18,CCGTATTA,0.227
19,GAATGGAC,0.0207
20,CCAACCGC,0.0172
21,AAATCCCA,0.0646
22,GGTGGCTA,-0.0361
23,TCCGCCCA,-0.206
24,AGCTGTGA,-0.0637
25,CTTTAGTA,0.117

row,Sequence,PBM E-score
1,AGAATGAT,0.0314
2,CAATAGTA,0.12
3,AAGTACTC,-0.171
4,AAATCCAG,0.0865
5,GTTCGTAA,0.135
6,GTTGTCCA,0.0758
7,GACCAGGC,-0.109
8,ACGCTTAT,-0.181
9,GTGCAGAA,-0.136
10,AGATTAGC,-0.146
11,AGAGACAG,-0.0449
12,GCAGAGCA,-0.303
13,AAGGTCAA,0.279
14,AACTCCAC,-0.127
15,CTTGCGAC,-0.127
16,ATAGGGTA,0.38
17,GAGTCCTA,-0.0209
18,CTAGGATC,-0.157
19,TAATTCCA,-0.00365
20,ATTTGGAA,0.0827
21,GCTTAACA,-0.0361
22,ATCGAGCC,-0.185
23,CGGCCCCA,-0.0836
24,TAGTGGAA,-0.0841
25,CTCACATA,0.145

row,Sequence,PBM E-score
1,TCGGTGCA,-0.136
2,CATGCATA,-0.0182
3,TGAAGGCA,-0.0983
4,CCGGCAGA,-0.245
5,CGGCGATC,-0.0265
6,GCGCCGGA,-0.0658
7,AAAGGTTC,0.293
8,TCAGTGCA,-0.168
9,AAGGGAAG,-0.134
10,AGAATACG,-0.0561
11,CTTGGTCC,-0.0749
12,CACAACAG,-0.0136
13,GAACACAC,-0.0774
14,AACCGGGA,0.133
15,CAGCAGGA,-0.153
16,CAAATCCG,-0.188
17,CAATGGTC,0.0798
18,AAGGTGTA,0.0926
19,CACTGCCA,-0.0495
20,AAAGCATT,-0.0743
21,CCATGCAA,0.00015
22,ACTGGCTG,-0.244
23,GCGACTAC,-0.0318
24,ACAACTCC,-0.0349
25,AACCCAGT,0.181

row,Sequence,PBM E-score
1,GGGGGACC,-0.0852
2,CGATCTAA,-0.0485
3,CTGCTTCC,-0.292
4,CTATACGC,-0.131
5,AGAAGTTC,-0.218
6,ATAATGGC,0.0492
7,GTCGAAAA,0.112
8,CAGTCCCA,-0.119
9,AATGCTCC,-0.335
10,AGCCTGGG,-0.0627
11,CAACCTAG,0.0544
12,ATCCGGGG,-0.0183
13,TAAAACTA,0.146
14,TGGCGACA,-0.121
15,AATTAACA,0.12
16,CCTTAACC,0.438
17,AATTGACG,-0.147
18,CGGATACA,-0.0534
19,CATGGCCA,0.207
20,GATTAGGC,-0.0423
21,ACGATTAC,0.00152
22,CCAGAGCA,0.0133
23,AGATCCTG,-0.117
24,CAGTACCA,0.214
25,CCGCATCA,-0.0394

row,Sequence,PBM E-score
1,GTTACGCA,0.208
2,CAGTGGAA,-0.0442
3,ATGACACA,0.161
4,AATTGATA,0.0582
5,CTTCCTCA,-0.105
6,ATGATCGC,-0.107
7,CCCCTCTC,-0.199
8,AGCGGGAA,-0.268
9,CGTCACAA,-0.0229
10,CGAGACCA,0.186
11,ATCATGTA,0.0425
12,GATACCGC,0.106
13,ATTCGTAA,0.132
14,CAGTTAGA,-0.0791
15,GCCTGAGA,-0.0989
16,AAGAACTC,0.0396
17,TATACACA,0.19
18,GCAAGCAC,-0.267
19,ATGTCATG,0.0809
20,ATACGCTG,-0.0449
21,TCCTATCA,-0.102
22,ATTCTATA,0.0331
23,CATGGGCG,0.00918
24,GGACGAGA,-0.0403
25,CTAAGGTC,0.151

row,Sequence,PBM E-score
1,CTACAAGC,-0.173
2,CTCGTTCC,-0.14
3,GGTAGCGA,0.244
4,ACAAAATG,0.131
5,AACTGGCG,-0.0757
6,AAGGTAAT,0.322
7,CTACCTAG,0.104
8,CGAGGGAC,-0.155
9,GATGTCGA,0.0118
10,CTAAGCCC,-0.245
11,AGTTTGCG,-0.00356
12,AATATTTC,0.151
13,TAGGAGCA,-0.0671
14,CTGCCCTA,-0.0669
15,AAGAATGG,0.0435
16,CGATCGTA,0.031
17,GCAGCCAC,-0.169
18,CCCGGTTA,0.25
19,ACCCTGTG,0.367
